# Source: article PMC4336329 (PLoS ONE, 2015)
# The campaign covered roughly 310,000 compounds. About 14,000 (4.5%) showed an effect of 50% or more. The effect is printed as a negative number. The list shows a part of the results.
# Molecular target: human ether-à-go-go-related gene (hERG) potassium channel (human, UniProt Q12809)
# Test: primary screen, population patch clamp on CHO cells stably expressing hERG
# 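Note: peak tail current of the secondary pulse compared with the same well before compound.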
# Chain of human ether-à-go-go-related gene (hERG) potassium channel (Q12809 whole entry, looked up): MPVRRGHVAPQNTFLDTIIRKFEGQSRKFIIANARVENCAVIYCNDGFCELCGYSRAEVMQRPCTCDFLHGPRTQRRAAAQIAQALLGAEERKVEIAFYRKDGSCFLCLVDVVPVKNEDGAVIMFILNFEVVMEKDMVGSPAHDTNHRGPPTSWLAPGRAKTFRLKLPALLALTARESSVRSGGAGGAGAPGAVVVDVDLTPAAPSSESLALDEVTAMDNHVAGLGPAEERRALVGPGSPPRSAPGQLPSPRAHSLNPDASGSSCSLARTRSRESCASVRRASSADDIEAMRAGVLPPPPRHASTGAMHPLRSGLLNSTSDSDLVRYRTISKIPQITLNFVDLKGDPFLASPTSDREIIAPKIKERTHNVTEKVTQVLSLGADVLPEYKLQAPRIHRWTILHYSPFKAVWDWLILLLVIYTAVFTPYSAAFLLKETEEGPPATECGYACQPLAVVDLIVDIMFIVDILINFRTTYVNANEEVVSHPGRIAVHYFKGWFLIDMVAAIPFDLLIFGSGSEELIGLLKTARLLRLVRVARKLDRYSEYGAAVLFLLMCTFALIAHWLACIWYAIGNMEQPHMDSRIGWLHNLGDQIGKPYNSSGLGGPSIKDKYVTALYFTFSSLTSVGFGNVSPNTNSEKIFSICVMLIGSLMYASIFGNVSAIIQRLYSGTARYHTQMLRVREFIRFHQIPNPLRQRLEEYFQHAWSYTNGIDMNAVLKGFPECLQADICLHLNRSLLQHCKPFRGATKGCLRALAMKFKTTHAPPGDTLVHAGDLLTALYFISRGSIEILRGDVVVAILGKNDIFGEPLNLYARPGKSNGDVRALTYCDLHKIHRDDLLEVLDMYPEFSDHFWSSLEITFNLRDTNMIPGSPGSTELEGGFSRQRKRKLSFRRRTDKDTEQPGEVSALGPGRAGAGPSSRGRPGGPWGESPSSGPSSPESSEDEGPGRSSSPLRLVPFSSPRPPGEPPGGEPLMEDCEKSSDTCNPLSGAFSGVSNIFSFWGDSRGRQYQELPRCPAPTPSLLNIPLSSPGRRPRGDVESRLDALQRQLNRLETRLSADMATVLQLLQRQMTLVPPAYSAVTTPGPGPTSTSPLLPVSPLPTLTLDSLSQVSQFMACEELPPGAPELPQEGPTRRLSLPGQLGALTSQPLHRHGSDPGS
row,Structure (SMILES),"hERG current change (%, negative = inhibition) at 10uM"
1,CC(=O)Nc1ccc(NC(=O)C(C)OC(=O)CNS(=O)(=O)/C=C/c2ccc(C)cc2)cc1 (centres unmarked),18.9%
2,CCC(C)Nc1nc(N)c([N+](=O)[O-])c(NCc2ccccc2)n1 (centres unmarked),0.654%
3,Cc1cc(C(=O)CN2C(=O)C(=O)N(CC(C)C)C2=O)c(C)n1C1CC1,-32.4%
4,CC(=O)c1cc(C#N)c(N2CC(C)OC(C)C2)nc1C (centres unmarked),-6.5%
5,CN(Cc1ccccc1F)C(=O)CN1c2cccc3cccc(c23)S1(=O)=O,0.573%
6,CCCCOC(=O)CCn1c(=S)oc2ccccc21,-17.4%
7,O=C(NCC(O)CO)c1ccc2[nH]c3ccccc3c2c1 (centres unmarked),10.4%
8,OCCNc1nc(Nc2ccccc2Cl)nc(N2CCCC2)n1,-13.3%
9,CC1=C(C(=O)OC(C)(C)C)C(c2cccs2)NC(=O)N1 (centres unmarked),-0.0788%
10,CN(C)c1ccc(SC#N)cc1,9.32%
11,CCn1c(SC)nnc1-c1sc2cc(Cl)ccc2c1Cl,-55.4%
12,CC(C)(C)NC(=O)CSc1nccn1Cc1ccccc1,-5.59%
13,COc1ccc(NC(=O)c2ccc(OCc3c(C)noc3C)c(OC)c2)cn1,-0.917%
14,O=C(Nc1ccc(S(=O)(=O)NCC2CCCO2)cc1)C1CC(=O)N(c2ccccc2)C1 (centres unmarked),3.16%
15,O=C(CSC1=NS(=O)(=O)c2cc(F)ccc2N1)NCc1ccccc1Cl,-2.68%
16,CC(OC(=O)CN1C(=O)NC(C)(C)C1=O)C(=O)c1ccccc1 (centres unmarked),6.12%
17,O=C(c1ccc2snnc2c1)N1CCOCC1,18.6%
18,CCCC(=O)Nc1sc2c(c1C#N)CC(C)(C)NC2(C)C,5.32%
19,O=C(Nc1ccc2oc(-c3ccc(Cl)c(Cl)c3)nc2c1)c1ncn[nH]1,1.48%
20,C[C@H]1CC[C@@]2(O[C@H](CCO)C[C@H](O)[C@H]2O)O1,24%
21,O=C1CSC(c2ccccc2[N+](=O)[O-])N1c1cccc(F)c1 (centres unmarked),-5.28%
22,CCOC(=O)N1CCN(Cc2nc(Cc3cccc(F)c3)no2)CC1,10.6%
23,COc1ccc(CC(=O)Nc2ccc(N3CCCCC3)cc2)cc1,10.5%

row,Structure (SMILES),"hERG current change (%, negative = inhibition) at 10uM"
1,CSc1ncccc1C(=O)OCC(=O)NC1CCS(=O)(=O)C1 (centres unmarked),9.4%
2,CCNC(=S)NNC(=O)c1cccs1,24.5%
3,CCOc1ccccc1N1CC(C(=O)N2CCc3ccccc3C2)CC1=O (centres unmarked),-19.4%
4,CCOC(=O)C1(CC2CCCCO2)CCN(Cc2cn[nH]c2-c2cccc(F)c2)CC1 (centres unmarked),-53.9%
5,CCc1ccc(NC(=S)N(CCN(C)C)C(C)c2ccncc2)cc1 (centres unmarked),-37.7%
6,CN(c1ccccc1C(=O)Nc1cccc([N+](=O)[O-])c1)S(C)(=O)=O,-20%
7,O=C(c1cccc([N+](=O)[O-])c1)N1CCCC(C(=O)N2CCCCC2)C1 (centres unmarked),6.74%
8,Cc1ccc(OCC(=O)N2CCN(Cc3ccc4c(c3)OCO4)CC2)cc1C,-24.6%
9,COc1ccc(-c2cc3ccc(OC)cc3cn2)cc1,11.9%
10,CCC(=O)N1CCCc2ccccc21,17.6%
11,CC(C)Oc1ccc(C2CC(=O)NC2=O)cc1 (centres unmarked),2.23%
12,COc1ccc(Cc2nnc(N=Nc3c(O)[nH]c4ccc(Br)cc34)[nH]c2=O)cc1,19.7%
13,CCn1cc(C(=O)N2CCc3ccccc32)c(=O)c2cc(S(=O)(=O)N3CC(C)CC(C)C3)ccc21 (centres unmarked),-43.8%
14,COc1ccc(OC)c2c1sc(=NC(=O)C1CC1)n2C,-11.2%
15,CCOC(=O)c1ccc(NC(=S)N2CCCC2)cc1,43.3%
16,CC(=O)NS(=O)(=O)c1ccc(NC(=O)COc2ccc(C(=O)c3ccccc3)cc2)cc1,15.8%
17,COc1ccc(S(=O)(=O)N(C)c2ccc(C(=O)NCC3CCCO3)cc2)cc1 (centres unmarked),2.76%
18,CC1CN(C(=S)NC2CCCC2)CC(C)O1 (centres unmarked),13%
19,CCn1c2ccccc2c2cc(NC(=O)CN(C)CC(=O)Nc3ccc(N4CCOCC4)cc3)ccc21,10.5%
20,CCn1c(=O)c2cc(S(=O)(=O)NCc3ccccc3)ccc2n(CC)c1=O,4.11%
21,CCc1ccc(CN(C)CC(O)COc2cccc3ccccc23)cc1 (centres unmarked),-25.2%
22,CCc1ccc(CNC(=O)C2CCCN(c3nnc(C)c4c(C)n(-c5ccccc5)nc34)C2)cc1 (centres unmarked),-15.2%
23,O=C(NC1CCCC1)C(c1ccccn1)N(C(=O)c1csnn1)C1CCCC1 (centres unmarked),2.32%

row,Structure (SMILES),"hERG current change (%, negative = inhibition) at 10uM"
1,O=C(NCc1ccco1)C1CCCN(S(=O)(=O)c2cccc3cccnc23)C1 (centres unmarked),0.148%
2,c1csc(CNc2ncnc3nc[nH]c23)c1,-2.79%
3,COc1ccccc1N1CCN(C(=O)c2ccc(CN3CCOCC3)cc2)CC1,16.7%
4,CCCCCNC(=O)c1ccc2c(=O)n(CC3CCCO3)c(=S)[nH]c2c1 (centres unmarked),4.06%
5,CCCCCn1c(=O)[nH]c2cc(C(=O)N3CCN(c4ccc(C(C)=O)cc4)CC3)ccc2c1=O,-15.9%
6,COc1cc(C(=O)N(Cc2ccc(C)o2)C2CCS(=O)(=O)C2)cc(OC)c1OC (centres unmarked),14.4%
7,Cn1c(N2CCOCC2)c(/C=N/O)c2ccccc21,7.51%
8,OCCOCCNc1ncnc2c1c(-c1ccccc1)cn2-c1ccccc1,-50.6%
9,Cc1ccc(S(=O)(=O)N2CCN(C(=O)COC(=O)/C=C/c3ccccc3F)CC2)c(C)c1,16.8%
10,COC(=O)[C@]1(CC(C)C)N[C@H](c2ccc(-c3ccc(OC)cc3)cc2)[C@@H]2C(=O)N(C)C(=O)[C@@H]21.O=C(O)C(F)(F)F,8.93%
11,COc1ccc(N(CC(O)CN2CCCCC2)S(=O)(=O)c2ccc(C)cc2)cc1 (centres unmarked),-78.6%
12,COc1ccccc1NC(=O)C(=O)NCC1CCCN1S(=O)(=O)c1cccs1 (centres unmarked),-18.9%
13,COc1cc(NC(=O)COc2ccc(-n3cnnn3)cc2)c(OC)cc1Cl,-22%
14,Cc1ccc(S(=O)(=O)N2CCN(c3ccccc3)CC2)cc1C,6.82%
15,COCCNc1nc2c(c(=O)n(Cc3ccc(OC)cc3)c(=O)n2C)n1C,-4.98%
16,Oc1ccccc1-c1nnc(COc2ccccc2)o1,1.55%
17,Cc1ccc(CC(=O)Nc2ccc(S(=O)(=O)N3CCOCC3)cc2)cc1C,4.53%
18,COc1ccccc1C(=O)N1CCN(S(=O)(=O)Cc2ccccc2)CC1,0.496%
19,Cc1cc(C)n(C(=O)CNC(=O)c2ccco2)n1,11.9%
20,O=C1c2[nH]nc(-c3ccccc3O)c2C(c2cccc(O)c2)N1Cc1ccco1 (centres unmarked),-3.29%
21,COc1cccc(-n2nnnc2SCC(=O)Nc2ccc3c(c2)OCCO3)c1,6.02%
22,O=C(NCCO)C(F)(F)C(F)(F)C(F)(F)OC(F)(C(=O)NCCO)C(F)(F)F (centres unmarked),8.31%
23,Cc1ccc(-n2nc3c(c2NC(=O)c2ccccc2)CS(=O)(=O)C3)cc1C,-45.3%

row,Structure (SMILES),"hERG current change (%, negative = inhibition) at 10uM"
1,Cc1ccc(Nc2nc(Cl)nc(NC3CCCCC3)n2)cc1,13.2%
2,Cn1c(SCc2nc(-c3ccc(Cl)cc3)no2)nnc1-c1cccs1,-1.95%
3,CCOc1cc(C2C3=C(CC(C)(C)CC3=O)N(CCCOC)C3=C2C(=O)CC(C)(C)C3)ccc1OC,-8.34%
4,Cc1ccc(OCCSc2cc(C)nc(N)n2)cc1,-8.47%
5,COc1ccc(S(=O)(=O)N(CC(=O)NC2CC2)c2ccc(C)cc2)cc1,-0.125%
6,CN(CCO)c1cc(Sc2nc3ccccc3s2)c2nonc2c1[N+](=O)[O-],23.7%
7,O=C(O)Cc1ccc(C(=O)c2cccs2)s1,11.8%
8,CCCC1(c2ccccc2)NC(=O)N(CC(=O)N(C)Cc2c(F)cccc2Cl)C1=O (centres unmarked),-2.69%
9,Nc1nc2nc(-c3ccc(F)cc3)cc(C(F)(F)F)n2n1,3.62%
10,Cc1cc(Nc2cc(Cl)nc(Sc3ccc(NC(=O)C4CC4)cc3)n2)n[nH]1,-1.43%
11,CCn1ncc(N2CCOCC2)c(Cl)c1=O,10.9%
12,COc1ccc(OC)c(NC(=O)CSc2nnc(-c3ccco3)n2-c2ccccc2)c1,-11%
13,O=C1NC(=O)/C(=C\c2ccccc2OCc2ccccc2)S1,36.7%
14,Cc1ccc(S(=O)(=O)Nc2ccccc2C(=O)N2CCCC2)cc1,0.25%
15,CC(C)OC(=O)CSc1nnc(-c2ccc(Cl)cc2)n1N,-2.07%
16,Cc1ccccc1NC(=O)Cc1nnc(SCC(=O)N2CCN(c3ccccc3)CC2)n1C,3.41%
17,CCN(CC)C(=O)c1ccc(COc2ccc(Cl)c(C)c2)o1,-9.32%
18,C=CCOc1ccccc1CNc1ccccc1C,-15.7%
19,CCOc1ccccc1NC(=O)Cn1nnc(C(=O)NCCc2ccc(OCC)c(OCC)c2)c1N,12.3%
20,CSCCC(NC(=O)c1ccccc1Cl)C(=O)N(C)Cc1cccs1 (centres unmarked),5.81%
